# Measured values as given in publication PMC12136788.
# This is one part of the list.
# T1: UNK ZnF1-6 (called full-length) (human, UniProt Q9C0B0 30-357)
# T1 sequence: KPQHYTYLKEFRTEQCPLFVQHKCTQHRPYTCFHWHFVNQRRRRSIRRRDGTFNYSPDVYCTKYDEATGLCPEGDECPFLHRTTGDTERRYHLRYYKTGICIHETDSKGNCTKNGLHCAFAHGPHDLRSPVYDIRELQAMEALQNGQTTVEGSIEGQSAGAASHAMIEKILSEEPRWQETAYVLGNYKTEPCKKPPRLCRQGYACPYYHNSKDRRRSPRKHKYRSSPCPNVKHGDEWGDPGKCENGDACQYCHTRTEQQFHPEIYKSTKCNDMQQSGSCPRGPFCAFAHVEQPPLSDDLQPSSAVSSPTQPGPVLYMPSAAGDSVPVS
# B1: ENSG00000198589:be:win_901|CDS|ENSG00000198589|bound_else_gene|NA|bound_elsewhere_windowed (ssRNA)
# RNA: GGGAGUUCUACAGUCCGACGAUCAUGGUUACCAUAGUACACAUCUAUAACCGAUGGAAGAAUAGUGAACUUCGAUGUUAUGUGAAUGGUGAGCUGGCUUCCUAUGGAGAGAUAACAUGGUUUGUCAACACUAGCGAUACCUUUCAACAGAGGAUUGAGCAUCA
# B2: chr5:14398947:14399058:+|CDS|ENSG00000038382|unk|total|mutant (ssRNA)
# RNA: GGGAGUUCUACAGUCCGACGAUCCCCAAAAACCUUAAUUCGAAAGGGUCGAGAACGGCAUCUCUUCCUUUUUGAAAUGUCCUCCGUAUUCCGUAAAGAAGUGAAAGAUUCCAGUGGGAGAAGCAAGUACCUUUAUAAAAGCAACAACAGAGGAUUGAGCAUCA
# B3: chr2:219567793:219567894:-|CDS|ENSG00000124006|msi1|total|mutant (ssRNA)
# RNA: GGGAGUUCUACAGUCCGACGAUCCCUGCCCCGGAAGCUCGACGUCCUGGAAGGAGAGAAUGCUGUGCUGCCCGUGGAAACUCCCGAGGCCGGGGUCGAGGGACGCUGGAGCCGUGAUGGGGAGGAGCUGCCGGUCAUCUGCCACAACAGAGGAUUGAGCAUCA
# B4: chr21:31659700:31659757:+|5pUTR|ENSG00000142168|msi1_unk|FALSE|overlapping (ssRNA)
# RNA: GGGAGUUCUACAGUCCGACGAUCCGAGGCGCGGAGGUCUGGCCUAUAAAGUAGUCGCGGAGACGGGGUGCUGGUUUGCGUCGUAGUCUCCUGCAGCGUCUGGGGUUUCCGUUGCAGUCCUCGGAACCAGGACCUCGGCGUGGCCAACAGAGGAUUGAGCAUCA
# B5: ENSG00000131238:stop:overlap|stop_codon|ENSG00000131238|stop_codon|NA|stop_codon (ssRNA)
# RNA: GGGAGUUCUACAGUCCGACGAUCCUUCACCUCCCAUGAUCAAUCUGAUCUCGGUUGGGGGACAACAUCAAGUGCCUUGUGCAUAGUGGGUAUUCGAUACAUCAUUAUUGAAGGAGUGGAUAUUUGUCAUCUACCACUGUAGGUCAACAGAGGAUUGAGCAUCA
# B6: chr3:50299934:50300035:-|3pUTR|ENSG00000114378|unk|total|mutant (ssRNA)
# RNA: GGGAGUUCUACAGUCCGACGAUCCGUUGCCCAAGGUUGCACAGCAAGAAAAGGGAGAAGUUGAGAUUCAAACCCAGGCUGUCCCGCUCCGGGGGUACAGCCCUUGCACUCCUACUGAGUUUGUGGUAACCAGCCCUGCACGACCAACAGAGGAUUGAGCAUCA
# B7: chr6:107870184:107870285:-|3pUTR|ENSG00000025796|msi1|FALSE|bound_elsewhere (ssRNA)
# RNA: GGGAGUUCUACAGUCCGACGAUCUAAUAUUUCCUAUAAAAGGGUGAAAGCAGUUUCUUUCUCUAUAACCUCAAUCACCAGUUUAGUGAGAGCCUUUCUUGGCAGGCAGGAGGCAGUGUCACUGAGGAUUUUUUUCAUUUACUUCAACAGAGGAUUGAGCAUCA
# B8: chr1:117959336:117959438:+|CDS|ENSG00000065183|unk|FALSE|unique (ssRNA)
# RNA: GGGAGUUCUACAGUCCGACGAUCGAUUAUCUCAAGAGGGAAUGCGAGGCAAAAAGUGAAGUUAUGUUUUUUGCUGAUGCUACUAGCCACUUGGAAGAGAAGAAGAGGAAGAGGAAAAAGAGGGAGAAGUUGAUUCUAACGUUGCAACAGAGGAUUGAGCAUCA
# B9: chr11:839720:840371:-|three_prime_utr|ENSG00000177700|control|control|control (ssRNA)
# RNA: GGGAGUUCUACAGUCCGACGAUCACUCUGGAAGGAACCAUCCAGUAAAGGUCUUUCAGAACCACUAAGGUCCCAGCCCUCACUAGGAUGUCAGGAGCCAGGUCUAGGCCCAGCUUUCACACUGUGGCAGCCCAGUGAAGCAGACAACAGAGGAUUGAGCAUCA
# B10: chr11:95129132:95129233:+|CDS|ENSG00000149218|msi1|FALSE|bound_elsewhere (ssRNA)
# RNA: GGGAGUUCUACAGUCCGACGAUCAAUCCUGAAGAACAUUGUCUAUUUCCUGUGGUGUGUUACCAAGCAGGUGAUUAAUGGCAUAGAAAGUUGCCUUUACCGCCUGGGCUCAGCCACCAUCUCAUACUUCAUGGCCAUUGGGGACAACAGAGGAUUGAGCAUCA
# B11: chr13:24435276:24435388:-|CDS|ENSG00000102699|unk|FALSE|unique (ssRNA)
# RNA: GGGAGUUCUACAGUCCGACGAUCCAAAAGAAAAAUGGAAUUAUCUCAGCCAGAAGUUUCUGAAGAUUUUGAAGAGGAUGGCUUAGGUGUACUACCAGCUUUCACAUCAAAUUUGGAACGUGGAGGUGUGGAAAAGCUAUUGGACAACAGAGGAUUGAGCAUCA
# B12: chr14:71588152:71588260:+|CDS|ENSG00000197555|unk|total|mutant (ssRNA)
# RNA: GGGAGUUCUACAGUCCGACGAUCGAAAACAUAAAAGAAUCCCGCCGUUCAAGCCAGGAAACCGAAACCUCAAGUUGCCUUGACCGCCUGUCCUCCAAAAGCAGUCCUGUGAGUCAGGGAAGUUCUGUCCGCCUCAAUUCCAAUCAACAGAGGAUUGAGCAUCA
# B13: chr12:3284029:3284272:+|3pUTR|ENSG00000011105|msi1|FALSE|unique (ssRNA)
# RNA: GGGAGUUCUACAGUCCGACGAUCCAUGUGGGUAUUCCCACAACAGGUUCUGCACACCCCAGUUAUUUCACAGACAUUCCUGCUAGAAACUGUCAGACAAAUACCUCUCUAGUUCGGAUGCUGCUCACUUUCCCCCUUGCUUCUCAACAGAGGAUUGAGCAUCA
# B14: chr14:67647084:67651481:-|three_prime_utr|ENSG00000100568|control|control|control (ssRNA)
# RNA: GGGAGUUCUACAGUCCGACGAUCGCUCGCCAUCCUGGGAGGCCUGGUUUACUACAAAUUCUUUCGCAGCCAUUGAACUUCUAUAGGGAAGGGUUUGUGGACCAGAACUUUGACCUUGUGAAUGCAUGAUGUUAGGGAUGUGGACAACAGAGGAUUGAGCAUCA
# B15: ENSG00000070961:be:win_4051|3pUTR|ENSG00000070961|bound_else_gene|NA|bound_elsewhere_windowed (ssRNA)
# RNA: GGGAGUUCUACAGUCCGACGAUCAUUUCUGCUGUUGGCUGUUAAUAAUUUGGAUUAUUUAUGUUUAUAAAUGAUACAGAUCUGUUUACAAGGUUUGUAGAUACUUUUUUUGUUCCUGUUCAUAGAUGGGAAGCUUCCUUAUAACAACAGAGGAUUGAGCAUCA
# B16: chr1:64777895:64778004:+|CDS|ENSG00000162437|unk|FALSE|bound_elsewhere (ssRNA)
# RNA: GGGAGUUCUACAGUCCGACGAUCGGAUUUGUGGAAUACAUGAAAAAGGACUUUGCUGCAAAGGCUAGACUGGAGCUAUUGGGUAGACAGUUGGGAGCAUCAGCACUCUUUGCACAAUGGAUGGAUGUUAAUCUAUUGGCUUCACAACAGAGGAUUGAGCAUCA
# B17: chr1:150960872:150960973:+|CDS|ENSG00000143379|unk|FALSE|unique (ssRNA)
# RNA: GGGAGUUCUACAGUCCGACGAUCGGACUCCCACCCCCCAGAUCUUGGACCCCCACAUAUUCCUGUUCCUCCCUCAAUCCCUGUAGGUGGCUGCAAUCCACCUUCCUCCGAAGAGACACCCAAGAACAAGGUGGCCUCAUGGUUCAACAGAGGAUUGAGCAUCA
# B18: chr17:48058596:48058697:+|CDS|ENSG00000082641|msi1|total|mutant (ssRNA)
# RNA: GGGAGUUCUACAGUCCGACGAUCCAAUGGCACAGCCAAUGACACAGCAGGCCCAGAGCUGCCUGACCCUUUGGGGGGUCUGUCCGAUGAAGCUAUGUUGGAUGAGAUCAGCCUUAUGGACCUGGCCAUUGAAGAAGGCUUUAACAACAGAGGAUUGAGCAUCA
# B19: ENSG00000136451:be:win_1|CDS|ENSG00000136451|bound_else_gene|NA|bound_elsewhere_windowed (ssRNA)
# RNA: GGGAGUUCUACAGUCCGACGAUCAUGGAGGCCAACUGGACCGCGUUCCUGUUCCAGGCCCAUGAAGCUUCCCAUCACCAACAGCAGGCAGCACAGAACAGCUUGCUGCCCCUCCUGAGCUCUGCCGUGGAGCCCCCUGAUCAGCAACAGAGGAUUGAGCAUCA
# B20: chr12:16548371:16551327:-|three_prime_utr|ENSG00000048540|control|control|control (ssRNA)
# RNA: GGGAGUUCUACAGUCCGACGAUCCAUUCUUUUAUCUUUUUUGCUCCACAUGUACAUAAGAAUUGACACAGGAACCUACUGAAUAGCGUAGAUAUAGGAAGGCAGGAUGGUUAUAUGGAAUAAAAGGCGGACUGCAUCUGUAUGCAACAGAGGAUUGAGCAUCA
# B21: ENSG00000148488:stop:overlap|stop_codon|ENSG00000148488|stop_codon|NA|stop_codon (ssRNA)
# RNA: GGGAGUUCUACAGUCCGACGAUCAAGAGUCUAAAGCAAGACAAAAGUGCAAAACAAAAAGAAAAACUAUAAACUCCAUCUUGUAGAUUUGUAGAUUCGCCACAACCAAGUCUGACUGUGACACUCCCAAGAAAUCUGUAUGUACAACAGAGGAUUGAGCAUCA
# B22: chr6:30541380:30546071:-|three_prime_utr|ENSG00000204590|control|control|control (ssRNA)
# RNA: GGGAGUUCUACAGUCCGACGAUCCUGACCUGGGGGUAUCUCCCCUCUGCCACCCCAAUUGUGAAUAAAGAUUGUUUGCUUUGUAGCCCCUUCCCCAGAUGAACUGAGGUGAGAGCGGCUGUUCCAGGCUAACAGCUGUGGGAGCAACAGAGGAUUGAGCAUCA
# Biological target: T1, UNK ZnF1-6 (called full-length)
# Assay: nsRBNS (natural sequence RNA bind-n-seq); RBNS binding buffer (assumed for nsRBNS): 25 mM Tris pH 7.5, 150 mM KCl, 3 mM MgCl2, 0.01% Triton X-100, 500 ug/ml BSA, 20 U/ml SUPERase-In, 4 C; UNK is unkempt and MSI1 is Musashi-1; names of the RNAs are library labels; protein concentration not given here; high values mean tight binding
row,Binder,binding signal [enrichment R]
1,B1,0.547
2,B2,0.448
3,B3,0.893
4,B4,0.818
5,B5,1.21
6,B6,0.518
7,B7,0.552
8,B8,0.838
9,B9,0.546
10,B10,0.508
11,B11,0.442
12,B12,0.759
13,B13,0.687
14,B14,0.965
15,B15,0.658
16,B16,0.595
17,B17,0.698
18,B18,0.557
19,B19,0.911
20,B20,0.9
21,B21,0.503
22,B22,0.746
